Measurements published in the supplement of paper PMC8728848.
This is one part of the list.

Columns and labels:
Experiment in all cases: glycan array binding signal (z-score within array); higher = stronger binding
Details in all cases: glycan notation: IUPAC condensed, linker removed
[1] = target: Fuc(a1-3)[Gal3S(b1-4)]GlcNAc
Summary of the method: (§1)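 The Consortium for Functional Glycomics database supplied 3228 glycan arrays, of which those lacking an available protein sequence were dropped. The binding signal, a within-array Z-score, was averaged across arrays of the same protein sequence and across linkers. Negative scores can be read as non-binding.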

[2] = target: Fuc(a1-3)[Gal3S(b1-4)]GlcNAc6S
Summary of the method: as §1

[3] = target: Fuc(a1-3)[GalNAc(b1-4)]GlcNAc
Summary of the method: as §1

[4] = target: Fuc(a1-3)[GalNAc(b1-4)]GlcNAc6S
Summary of the method: as §1

Fuc(a1-4)GlcNAc = target: Fuc(a1-4)GlcNAc
Summary of the method: as §1

Fuc(b1-3)GlcNAc = target: Fuc(b1-3)GlcNAc
Summary of the method: as §1

Gal(a1-2)Gal = target: Gal(a1-2)Gal
Summary of the method: as §1

Gal(a1-3)Gal = target: Gal(a1-3)Gal
Summary of the method: as §1

Gal(a1-3)Gal(b1-3)GlcNAc = target: Gal(a1-3)Gal(b1-3)GlcNAc
Summary of the method: as §1

[5] = target: Gal(a1-3)Gal(b1-3)GlcNAc(b1-2)Man
Summary of the method: as §1

[6] = target: Gal(a1-3)Gal(b1-3)GlcNAc(b1-2)Man(a1-3)[Gal(a1-3)Gal(b1-3)GlcNAc(b1-2)Man(a1-6)]Man(b1-4)GlcNAc(b1-4)GlcNAc
Summary of the method: as §1

[7] = target: Gal(a1-3)Gal(b1-3)GlcNAc(b1-3)GalNAc
Summary of the method: as §1

[8] = target: Gal(a1-3)Gal(b1-3)GlcNAc(b1-6)GalNAc
Summary of the method: as §1

[9] = target: Gal(a1-3)Gal(b1-3)[Fuc(a1-4)]GlcNAc(b1-2)Man(a1-3)[Gal(a1-3)Gal(b1-3)[Fuc(a1-4)]GlcNAc(b1-2)Man(a1-6)]Man(b1-4)GlcNAc(b1-4)GlcNAc
Summary of the method: as §1

Gal(a1-3)Gal(b1-4)Glc = target: Gal(a1-3)Gal(b1-4)Glc
Summary of the method: as §1

Gal(a1-3)Gal(b1-4)GlcNAc = target: Gal(a1-3)Gal(b1-4)GlcNAc
Summary of the method: as §1

[10] = target: Gal(a1-3)Gal(b1-4)GlcNAc(b1-2)Man
Summary of the method: as §1

[11] = target: Gal(a1-3)Gal(b1-4)GlcNAc(b1-2)Man(a1-3)[Gal(a1-3)Gal(b1-4)GlcNAc(b1-2)Man(a1-6)]Man(b1-4)GlcNAc(b1-4)GlcNAc
Summary of the method: as §1

[12] = target: Gal(a1-3)Gal(b1-4)GlcNAc(b1-3)GalNAc
Summary of the method: as §1

[13] = target: Gal(a1-3)Gal(b1-4)GlcNAc(b1-6)GalNAc
Summary of the method: as §1

[14] = target: Gal(a1-3)Gal(b1-4)[Fuc(a1-3)]GlcNAc
Summary of the method: as §1

[15] = target: Gal(a1-3)Gal(b1-4)[Fuc(a1-3)]GlcNAc(b1-2)Man(a1-3)[Gal(a1-3)Gal(b1-4)[Fuc(a1-3)]GlcNAc(b1-2)Man(a1-6)]Man(b1-4)GlcNAc(b1-4)GlcNAc
Summary of the method: as §1

Gal(a1-3)GalNAc = target: Gal(a1-3)GalNAc
Summary of the method: as §1

[16] = target: Gal(a1-3)[Gal(a1-4)]Gal(b1-4)GlcNAc
Summary of the method: as §1

[17] = target: Gal(a1-4)Gal(b1-3)GlcNAc(b1-2)Man(a1-3)[Gal(a1-4)Gal(b1-3)GlcNAc(b1-2)Man(a1-6)]Man(b1-4)GlcNAc(b1-4)GlcNAc
Summary of the method: as §1

Gal(a1-4)Gal(b1-4)Glc = target: Gal(a1-4)Gal(b1-4)Glc
Summary of the method: as §1

Gal(a1-4)Gal(b1-4)GlcNAc = target: Gal(a1-4)Gal(b1-4)GlcNAc
Summary of the method: as §1

[18] = target: Gal(a1-4)Gal(b1-4)GlcNAc(b1-2)Man(a1-3)[Gal(a1-4)Gal(b1-4)GlcNAc(b1-2)Man(a1-6)]Man(b1-4)GlcNAc(b1-4)GlcNAc
Summary of the method: as §1

[19] = target: Gal(a1-4)Gal(b1-4)GlcNAc(b1-3)Gal(b1-4)Glc
Summary of the method: as §1

Gal(a1-4)GlcNAc = target: Gal(a1-4)GlcNAc
Summary of the method: as §1

Gal(a1-6)Glc = target: Gal(a1-6)Glc
Summary of the method: as §1

Gal(b1-2)Gal = target: Gal(b1-2)Gal
Summary of the method: as §1

Gal(b1-3)Gal = target: Gal(b1-3)Gal
Summary of the method: as §1

Gal(b1-3)Gal(b1-4)GlcNAc = target: Gal(b1-3)Gal(b1-4)GlcNAc
Summary of the method: as §1

Gal(b1-3)GalNAc = target: Gal(b1-3)GalNAc
Summary of the method: as §1

[20] = target: Gal(b1-3)GalNAc(a1-3)[Fuc(a1-2)]Gal(b1-4)Glc
Summary of the method: as §1

[21] = target: Gal(b1-3)GalNAc(a1-3)[Fuc(a1-2)]Gal(b1-4)GlcNAc
Summary of the method: as §1

B1: SRA-1 (Homo sapiens), P21757 (protein)
chain: MEQWDHFHNQQEDTDSCSESVKFDARSMTALLPPNPKNSPSLQEKLKSFKAALIALYLLVFAVLIPLIGIVAAQLLKWETKNCSVSSTNANDITQSLTGKGNDSEEEMRFQEVFMEHMSNMEKRIQHILDMEANLMDTEHFQNFSMTTDQRFNDILLQLSTLFSSVQGHGNAIDEISKSLISLNTTLLDLQLNIENLNGKIQENTFKQQEEISKLEERVYNVSAEIMAMKEEQVHLEQEIKGEVKVLNNITNDLRLKDWEHSQTLRNITLIQGPPGPPGEKGDRGPTGESGPRGFPGPIGPPGLKGDRGAIGFPGSRGLPGYAGRPGNSGPKGQKGEKGSGNTLTPFTKVRLVGGSGPHEGRVEILHSGQWGTICDDRWEVRVGQVVCRSLGYPGVQAVHKAAHFGQGTGPIWLNEVFCFGRESSIEECKIRQWGTRACSHSEDAGVTCTL
glycan array binding signal (z-score) [1]: 0.315 | glycan array binding signal (z-score) [2]: 0.048 | glycan array binding signal (z-score) [3]: 1 | glycan array binding signal (z-score) [4]: 0.758 | glycan array binding signal (z-score) (Fuc(a1-4)GlcNAc): 0.616 | glycan array binding signal (z-score) (Fuc(b1-3)GlcNAc): -0.343 | glycan array binding signal (z-score) (Gal(a1-2)Gal): -0.324 | glycan array binding signal (z-score) (Gal(a1-3)Gal): -0.163 | glycan array binding signal (z-score) (Gal(a1-3)Gal(b1-3)GlcNAc): 0.035 | glycan array binding signal (z-score) [5]: -0.15 | glycan array binding signal (z-score) [6]: 0.219 | glycan array binding signal (z-score) [7]: -0.388 | glycan array binding signal (z-score) [8]: -0.158 | glycan array binding signal (z-score) [9]: -0.307 | glycan array binding signal (z-score) (Gal(a1-3)Gal(b1-4)Glc): 0.104 | glycan array binding signal (z-score) (Gal(a1-3)Gal(b1-4)GlcNAc): -0.529 | glycan array binding signal (z-score) [10]: -0.666 | glycan array binding signal (z-score) [11]: 0.005 | glycan array binding signal (z-score) [12]: 0.35 | glycan array binding signal (z-score) [13]: -0.248 | glycan array binding signal (z-score) [14]: 0.249 | glycan array binding signal (z-score) [15]: 0.45 | glycan array binding signal (z-score) (Gal(a1-3)GalNAc): -0.336 | glycan array binding signal (z-score) [16]: 0.417 | glycan array binding signal (z-score) [17]: -0.52 | glycan array binding signal (z-score) (Gal(a1-4)Gal(b1-4)Glc): 4.58 | glycan array binding signal (z-score) (Gal(a1-4)Gal(b1-4)GlcNAc): -0.083 | glycan array binding signal (z-score) [18]: 0.243 | glycan array binding signal (z-score) [19]: 0.03 | glycan array binding signal (z-score) (Gal(a1-4)GlcNAc): -0.452 | glycan array binding signal (z-score) (Gal(a1-6)Glc): -0.338 | glycan array binding signal (z-score) (Gal(b1-2)Gal): -0.488 | glycan array binding signal (z-score) (Gal(b1-3)Gal): 0.586 | glycan array binding signal (z-score) (Gal(b1-3)Gal(b1-4)GlcNAc): 0.14 | glycan array binding signal (z-score) (Gal(b1-3)GalNAc): -0.106 | glycan array binding signal (z-score) [20]: -0.14 | glycan array binding signal (z-score) [21]: 0.047
